Data published in PMC4336329 (PLoS ONE, 2015).
In all, about 310,000 compounds went through this assay and about 14,000 (4.5%) showed an effect of 50% or more. Effects have a minus sign here. The list shows a part of the results. *1 amine or outer side, *2 acyl side, *3 side chain or, on linkers, in order; H or OH if unused. Where a SMILES comes first, the peptide text is derived from it. Bridges are numbered along the chain shown (N, C = ends). [ ]: non-standard residue; d: D form. ξ: configuration not given here. hSer(Ph(2-I,4-NO2,6-CO)) = O=C([C@H](CCOc1c(I)cc([N+](=O)[O-])cc1C(=O)[*:3])N[*:1])[*:2]; ξD = NC(CC(=O)O)C(=O)O

target: human ether-à-go-go-related gene (hERG) potassium channel (human, UniProt Q12809); assay: primary screen, population patch clamp on CHO cells stably expressing hERG
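Note: peak tail current of the secondary pulse compared with the same well before compound.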

human ether-à-go-go-related gene (hERG) potassium channel, sequence (Q12809 whole entry, looked up): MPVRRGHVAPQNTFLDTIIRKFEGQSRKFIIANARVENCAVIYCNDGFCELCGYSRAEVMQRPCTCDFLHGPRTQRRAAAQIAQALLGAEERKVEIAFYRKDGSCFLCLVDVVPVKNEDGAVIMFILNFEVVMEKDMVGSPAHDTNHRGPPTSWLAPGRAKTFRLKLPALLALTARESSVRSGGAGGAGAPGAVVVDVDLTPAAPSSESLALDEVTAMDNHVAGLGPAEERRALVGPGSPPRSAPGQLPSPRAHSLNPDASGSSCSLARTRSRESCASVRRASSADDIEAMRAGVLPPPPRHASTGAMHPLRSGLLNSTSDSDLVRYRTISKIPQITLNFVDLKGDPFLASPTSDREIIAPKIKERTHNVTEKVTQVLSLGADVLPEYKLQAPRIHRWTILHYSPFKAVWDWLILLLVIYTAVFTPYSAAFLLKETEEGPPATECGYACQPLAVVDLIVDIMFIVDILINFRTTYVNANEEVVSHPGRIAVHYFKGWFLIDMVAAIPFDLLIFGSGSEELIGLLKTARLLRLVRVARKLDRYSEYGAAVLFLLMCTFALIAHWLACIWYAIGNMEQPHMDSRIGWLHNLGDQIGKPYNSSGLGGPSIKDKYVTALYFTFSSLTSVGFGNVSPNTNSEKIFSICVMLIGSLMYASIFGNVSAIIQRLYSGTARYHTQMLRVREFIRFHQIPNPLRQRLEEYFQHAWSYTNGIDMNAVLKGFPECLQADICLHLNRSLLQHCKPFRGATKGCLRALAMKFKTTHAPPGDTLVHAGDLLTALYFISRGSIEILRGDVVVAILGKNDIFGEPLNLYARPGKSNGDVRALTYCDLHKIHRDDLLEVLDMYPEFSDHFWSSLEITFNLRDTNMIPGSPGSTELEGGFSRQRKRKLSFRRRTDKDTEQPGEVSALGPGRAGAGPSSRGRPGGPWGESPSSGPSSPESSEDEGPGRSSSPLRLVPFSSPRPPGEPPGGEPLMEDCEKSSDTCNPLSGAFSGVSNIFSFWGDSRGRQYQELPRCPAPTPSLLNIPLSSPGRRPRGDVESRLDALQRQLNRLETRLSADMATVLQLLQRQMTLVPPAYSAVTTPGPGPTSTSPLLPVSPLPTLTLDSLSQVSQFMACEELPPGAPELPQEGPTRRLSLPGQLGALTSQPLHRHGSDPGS

| SMILES | hERG current change (%, negative = inhibition) at 10uM |
| --- | --- |
| CCC(C(=O)N1CCN(c2cccc(Cl)c2)CC1)c1ccccc1 (stereo not drawn) | -3.5% |
| O=c1[nH]cc(-c2ccc(Br)cc2)n1Cc1ccccc1 | 2.96% |
| O=C(c1ccncc1)N1CCN(C(=O)c2ccco2)CC1 | 11.1% |
| COc1ccc(C(=O)COC(=O)CN2C(=O)C3C4CCC(C4)C3C2=O)cc1 (stereo not drawn) | -17.9% |
| COc1ccc(S(=O)(=O)NCC(=O)Nc2cccc(C)c2C)cc1OC | -11.5% |
| Cc1cnc(C(=O)OCc2nc3ccsc3c(=O)[nH]2)cn1 | 10.8% |
| Cc1ccc(NC(=O)CCn2c(=O)[nH]c3ccsc3c2=O)cc1 | -10.5% |
| Cc1cc(N2CCOCC2)nc2ccc(NC(=O)CCC(=O)N3CCN(c4ccc(F)cc4)CC3)cc12 | 21% |
| CC(=O)Nc1sc2c(c1C(N)=O)CCN(Cc1ccccc1)C2.Cl | -23.3% |
| CN(C)c1ccc(NC(=O)Cn2cc3c(n2)CCCC3)cc1 | 15.2% |
| CCC(C)(C(=O)NC1CCCC1)N(Cc1cccs1)C(=O)c1ccccn1 (stereo not drawn) | 3.24% |
| COCC1CCCN(Cc2nc(C(c3ccccc3)c3ccccc3)no2)C1 (stereo not drawn) | -19.6% |
| Cc1nccc2oc(=O)c(NC(=O)c3ccc(Cl)cc3)cc12 | 6.07% |
| CCn1cc(Br)c(C(=O)N2CCN(c3ccccc3)CC2)n1 | 9.47% |
| O=C(NCc1ccco1)/C(=C/C=C\c1ccccc1)NC(=O)c1ccc(Br)o1 | -59.6% |
| COc1ccc(NC(=O)COC(=O)CCCc2c[nH]c3ccccc23)cc1 | -13.3% |
| COC(=O)C1=C(c2cc3ccccc3s2)C[C@@H]2CC[C@H]1N2C(=O)NCC1CC1 | -34% |
| O=C(Nc1ccc(Oc2cccnc2)cc1)c1cccc([N+](=O)[O-])c1 | -11% |
| Cc1ccc(C(=O)N/C(=C\c2cn(-c3ccccc3)nc2-c2ccccc2)C(=O)N2CCOCC2)cc1 | 3.69% |
| Cc1ccc(NC(=O)c2cc(S(=O)(=O)N(C)C)ccc2N2CCCC2)cc1S(=O)(=O)N(C)C | -26.5% |
| O=C1c2ccccc2C(=O)C1c1ccccn1 | 6.76% |
| O=C(COC(=O)c1ccc(CNS(=O)(=O)c2ccc(F)c(Cl)c2)cc1)NCC1CCCCC1 | -8.23% |

| SMILES | hERG current change (%, negative = inhibition) at 10uM |
| --- | --- |
| COc1cc(/C=C2/NC(=O)N(CC(=O)Nc3cccc(C)c3)C2=O)ccc1OCC(N)=O | 8.6% |
| COC(=O)c1ccsc1NC(=O)CCc1ccccc1 | 8.69% |
| N#Cc1cn(Cc2cccc(Cl)c2)c2ccccc12 | 1.82% |
| Cc1cc(=O)[nH]c(SCC(=O)c2ccc(C(C)C)cc2)n1 | 4.27% |
| Cc1cccc(C)c1NC(=O)NC1CCc2ccccc21 (stereo not drawn) | 18.8% |
| O=C(Nc1ccc(S(=O)(=O)N2CCCCC2)cc1)C1CC(=O)N(c2ccc(F)cc2)C1 (stereo not drawn) | 11.2% |
| Cc1cccc(N/N=C/c2ccccc2O)c1 | 18.7% |
| CCOc1ccc(Br)cc1CNCCN1CCOCC1 | 1.31% |
| Cn1nc(C(=O)NCc2cccs2)c2ccccc2c1=O | 14.6% |
| O=C(CN(c1ccccc1F)S(=O)(=O)c1ccccc1)Nc1ccccc1C(=O)N1CCOCC1 | -10.3% |
| CN(C(=O)N1CCN(c2ccccn2)CC1)c1ccccc1 | 7.47% |
| CC1=[N+]([O-])C(C)(C)C(C)N(O)C1=O (stereo not drawn) | 4.15% |
| NC(=O)C1CCN(C(=S)NCc2ccc3c(c2)OCO3)CC1 | 22.6% |
| O=C(Nc1ccc2c(c1)OCO2)c1cncc(Br)c1 | 17.9% |
| CC(C)C(=O)Nc1cc(S(=O)(=O)Nc2cccc(Cl)c2)ccc1Cl | 11.2% |
| COc1cccc(/C=C2/CN(C)CC3=C2OC(N)=C(C#N)C3c2cccc(OC)c2)c1 (stereo not drawn) | -16.1% |
| Cc1cc(C(=O)Nc2sc(C)c(C)c2C#N)no1 | -0.844% |
| C[C@@H]1NC(=O)c2cc([N+](=O)[O-])cc(I)c2OCC[C@@H](C(=O)NC(CC(=O)O)C(N)=O)NC(=O)[C@H](CCC(=O)O)NC1=O (stereo partly drawn) (AE[hSer(Ph(2-I,4-NO2,6-CO))][ξD]-NH2; lactam N-3) | -2.07% |
| CC(C)(C)c1ccccc1NC(=O)c1c(O)c2cccc3c2n(c1=O)CC3 | 19.2% |
| COc1cc(/C=C/C(=O)OCC(=O)Nc2cc(S(=O)(=O)N3CCCCC3)ccc2C)ccc1O | 0.0957% |
| CCOc1ccc(S(=O)(=O)n2cnc3cc(C)c(C)cc32)cc1 | 6.15% |
| CCC(=O)n1nc(-c2cccnc2)nc1NCc1ccc(F)cc1 | -0.328% |

| SMILES | hERG current change (%, negative = inhibition) at 10uM |
| --- | --- |
| COc1ccc(C)cc1NC(=O)CCCN1C(=O)CCC1=O | -2.93% |
| NCCNC(=O)Cc1ccc(NC(=O)Cc2ccc(Nc3ncnc4c3ncn4[C@@H]3O[C@H](CO)[C@@H](O)[C@H]3O)cc2)cc1 | 18% |
| COc1cccc2c(=S)c(CCC(C)=O)c(C)[nH]c12 | -8.7% |
| Cc1cccc(/C=N/NC(=O)Cn2nccc2C)n1 | 0.634% |
| Cc1ccc(N2CCN(C(=O)c3cn(CC4CCCCC4)nn3)C(C)C2)cc1 (stereo not drawn) | -20.9% |
| COc1cccc(-c2ccc3ncnc(NCc4cc(C)cs4)c3c2)c1 | -7.61% |
| CN(C(=O)c1ccno1)c1nnc(-c2cccnc2)s1 | 2.98% |
| CN1C(=O)Cc2cc(S(=O)(=O)N3CCOCC3)ccc21 | -3.02% |
| Cc1ccc(NC(=O)CSc2ccccc2NC(=O)c2ccccc2Cl)cc1Cl | 1.55% |
| CCn1nc(C)c(NC(=O)c2ccc(Br)o2)c1C | 1.96% |
| COc1ccc(CNC(=O)COc2ccc(C(=O)c3ccc(F)cc3)cc2)cc1 | -9.93% |
| O=S(=O)(Nc1nc2ccccc2nc1Cl)c1ccc(Cl)cc1 | -15.9% |
| Cc1cc(C)cc(N2C(=O)NC(=O)/C(=C\C=C\c3ccco3)C2=O)c1 | -13.8% |
| CC1(C)CC2CC(C)(CN2C(=O)C23CCC(C)(C(=O)C2)C3(C)C)C1 (stereo not drawn) | -4.28% |
| Cc1ccc(C(=O)N2CCC(C(=O)NCc3ccco3)CC2)cc1 | -11.3% |
| COC(=O)c1ccccc1-c1ccc(/C=N/NC(=O)c2cc3ccccc3o2)o1 | -48.4% |
| O=C1C2CCCN2C(c2cccs2)N1c1ccc(F)cc1 (stereo not drawn) | 14.6% |
| CC1CN(S(=O)(=O)c2cccc(C(=O)Nc3ccc(S(=O)(=O)NC4=NCCCCC4)cc3)c2)CC(C)O1 (stereo not drawn) | -5.97% |
| Cc1oc(-c2ccccc2)nc1C(=O)N1CCN(c2ccc(F)cc2)CC1 | 8.75% |
| O=c1c2c([N+](=O)[O-])cc([N+](=O)[O-])cc2nc2ccccn12 | 6.04% |
| Cn1cc(Cl)c(C(=O)N(Cc2ccccc2)c2ccccn2)n1 | 4.98% |
| Cc1cc(OC(=O)c2ccccc2)n(CCC#N)n1 | 8.73% |

| SMILES | hERG current change (%, negative = inhibition) at 10uM |
| --- | --- |
| Cc1ccc(-c2nc(CS(=O)CC(=O)NC3CCCC3)c(C)o2)cc1 (stereo not drawn) | -13.3% |
| CCOC(=O)c1cc(-c2ccccc2)n(CC(=O)Nc2cccc(OC)c2)c1C | -2.67% |
| Cn1cnnc1SCC(=O)Nc1ccccc1Oc1ccccc1 | 5.73% |
| CCOc1ccc(Nc2nc(Cl)nc(NCCO)n2)cc1 | 3.29% |
| CN(CC(=O)O)S(=O)(=O)/C=C/c1ccccc1 | 24.5% |
| CCOc1ccc(C)cc1S(=O)(=O)Nc1ccc(Cl)cn1 | -3.98% |
| COc1ccccc1NC(=S)NNC(=O)c1ccc(O)cc1 | 5.86% |
| CC(C)(C)C(=O)Nc1sc2c(c1C#N)CCCCC2 | 2.28% |
| C=CCNC(=S)Nc1cccc([N+](=O)[O-])c1 | 2.65% |
| O=[N+]([O-])c1cnc(Sc2ccncn2)s1 | 8.45% |
| O=C1/C(=C/c2cccnc2)SC(=S)N1CCc1ccccc1 | 4.28% |
| CCn1c(=O)c(CCC(=O)N2CCOCC2)c(C)c2c(C)nn(-c3ccccc3)c21 | -1.23% |
| COc1ccc(S(=O)(=O)N2CCOCC2)cc1NC(=O)COc1cccnc1[N+](=O)[O-] | 17.1% |
| CCOC(=O)NC(=O)COC(=O)c1cccc2ccccc12 | -36.5% |
| COc1ccc(S(=O)(=O)N(C)CC(=O)N2CCN(C)CC2)cc1C | 9.49% |
| COc1ccc(C2C(=O)N(CCc3ccccc3)CC(=O)N2C2CCCC2)cc1 (stereo not drawn) | -21.8% |
| COC(=O)c1cc(OC)c(OC)cc1N1C(=O)CCCC1=O | 21.7% |
| O=C(CSc1ncn[nH]1)N1CCN(S(=O)(=O)c2ccccc2)CC1 | 13.3% |
| COc1ccc(-c2noc(CCN3C(=O)c4ccccc4C3=O)n2)cc1OC | -4.91% |
| CCN1C/C(=C/c2ccc(N3CCOCC3)cc2)C(=O)/C(=C/c2ccc(N3CCOCC3)cc2)C1 | 4.37% |
| COc1ccccc1N=Cc1nc(-c2ccccc2)oc1OC(C)=O | 4.46% |
